The whole screen tested about 140,000 compounds, of which about 240 (0.17%) were called active. The shares of active, inactive and inconclusive entries below differ from those in the screen. Calls come from the whole dose curve; as a rule, active = well fitted inhibition curve with a large enough effect; inconclusive = small, poorly fitted or top-dose-only effect; inactive = no such curve, though single readings can be large or run the other way. A potency beside an inconclusive call is a rough fit, not a confirmed value.
Assay: Primary qHTS assay for inhibitors of alpha-synuclein gene (SNCA) expression; note: nearly all actives have a fitted effect of over 45% in size
Conditions: HEK-293 SNCA-luciferase knock-in, luminescence, 24 h; series mostly up to 57.2 µM
Potency is the fitted concentration of half-maximal effect; tags give direction and shape of the fitted curve.

Row | SMILES | Potency
1 | CC1=CC(=O)c2ccccc2C1=O | inactive
2 | O=C(NCCCc1ccccc1F)[C@@]12CNC[C@@H]1CN(Cc1ccccc1)C2 | inactive
3 | Cn1nc(-c2ccncc2)cc1NC(=O)c1ccc(Cl)cc1 | inactive
4 | CN1CCC(Cn2ccc3c(N4CCOCC4)nc(-c4ccc5cn[nH]c5c4)cc32)CC1 | inactive
5 | CNC(C)c1cccc(OC)c1 (stereo not drawn) | inconclusive: 15.8 µM [inhibitor, full curve, poor fit]
6 | CCOC(=O)c1ccc(NC(=O)CCc2c(C)nc3c(c(C)nn3C(C)(C)C)c2C)cc1 | inconclusive: 10 µM [inhibitor, partial curve, poor fit]
7 | COc1c(F)ccc(C(=O)NC2CC(=O)N(CCc3ccc(F)cc3)C2)c1F (stereo not drawn) | inactive
8 | COc1ccccc1N1CCN(C2CCCN(C3CCN(Cc4ccccc4)CC3)C2)CC1 (stereo not drawn) | inactive
9 | CSCc1nc(-c2ccncc2)nn1Cc1ccc2c(c1)OCO2 | inactive
10 | CC1(c2ccccc2)N(Cc2ccccc2)C(=O)OC12CCN(Cc1ccc(C#N)cc1)CC2 (stereo not drawn) | inconclusive: 7.08 µM [inhibitor, single point]
11 | Fc1ccc(-c2cnc3n[nH]c(-c4ccc5c(c4)OCO5)c3n2)cc1 | inconclusive: 4.47 µM [inhibitor, single point]
12 | Cc1ccc(C(=O)N(CCCN)[C@@H](c2nc3cc(Cl)ccc3c(=O)n2Cc2ccccc2)C(C)C)cc1 | inconclusive: 0.0383 µM [inhibitor, full curve, poor fit]
13 | O=C(CCn1cnnn1)N1CCCC(CCc2cccc(C(F)(F)F)c2)C1 (stereo not drawn) | inconclusive: 3.55 µM [inhibitor, single point]
14 | CCS(=O)(=O)c1cccc(C(=O)N2CCN(c3nc4c(C)ccc(Cl)c4s3)CC2)c1 | inconclusive: 0.631 µM [inhibitor, partial curve, poor fit]
15 | Cc1cnc(C2CCOCC2)n1C1CCCN(Cc2ccc(C#N)cc2)C1 (stereo not drawn) | inactive
16 | O=C(Cn1nnnc1CN1CCCC1)N1CCN(C2CCc3ccccc3C2)CC1 (stereo not drawn) | inconclusive: 8.91 µM [inhibitor, single point]
17 | Cc1ncccc1-c1nc2cc(C(=O)N(C)C)ccc2o1 | inactive
18 | Cc1ccccc1N1Cc2c(NCc3cccnc3)ncnc2N(C)CC1=O | inconclusive: 1.78 µM [inhibitor, partial curve, poor fit]
19 | Oc1ccc(-c2nc(C3CC3)nc3c2CCN(Cc2ccccn2)CC3)cc1 | inconclusive: 8.91 µM [inhibitor, single point]
20 | CCc1cn(C[C@H](NCCC(C)C)C(=O)O)c(=O)[nH]c1=O | inactive
21 | CN(CCCc1cnn(C)c1)C(=O)C1CNCCO1 (stereo not drawn) | inconclusive: 20 µM [inhibitor, single point]
22 | COc1ccc(CCC(=O)N2CCC(Cc3nc(-c4ccc(F)cc4)no3)CC2)cc1 | inconclusive: 8.91 µM [inhibitor, partial curve, poor fit]

Row | SMILES | Potency
23 | Cc1ccc(Cn2c(=O)n(-c3ccc(C)c(C)c3)c(=O)c3c(C)c(C)sc32)cc1 | inconclusive: 2.51 µM [inhibitor, single point]
24 | CC(C)N(Cc1ccccc1)C(=O)CN1C(=O)COc2ccc(S(=O)(=O)N3CCCCCC3)cc21 | inconclusive: 39.8 µM [inhibitor, single point]
25 | O=C(c1cc(F)cc(F)c1)N1CC(c2nnc(-c3ccncc3)o2)C2(CCOCC2)C1 (stereo not drawn) | inconclusive: 3.16 µM [inhibitor, full curve]
26 | O=C(c1cc(Br)cn2ccnc12)N1CCCC1 | inactive
27 | Cc1nnc2n1C(C)CN(C(=O)CCCn1cnc3ccccc3c1=O)C2 (stereo not drawn) | inactive
28 | COc1ccc(OCc2nc3c4c(-c5ccc(OC)cc5)c(-c5ccc(OC)cc5)oc4ncn3n2)cc1 | inconclusive: 31.6 µM [inhibitor, partial curve, poor fit]
29 | CCCn1c2ccccc2c2cnn(CC(=O)Nc3ccc(C)cc3Br)c(=O)c21 | inconclusive: 20 µM [inhibitor, partial curve, poor fit]
30 | CCCCCN1C(C(=O)c2ccccc2)=C(NC(C)=O)c2ccccc2S1(=O)=O | inconclusive: 12.6 µM [inhibitor, partial curve, poor fit]
31 | OC(c1ccc2c(c1)CCO2)c1nc(Nc2cccc(C(F)(F)F)c2)n[nH]1 (stereo not drawn) | inconclusive: 12.6 µM [inhibitor, single point]
32 | CCc1ccc(NC(=O)c2sc3nc(C)c(Cl)c(C)c3c2NC(=O)c2ccccc2)cc1 | inconclusive: 39.8 µM [inhibitor, single point]
33 | COc1ccc(-c2ccnc3nc(Cc4ccc(F)cc4)nn23)cc1 | inactive
34 | COc1ncc(CN2CCc3c(n(Cc4cccnc4)n(-c4ccccc4)c3=O)C2)cn1 | inactive
35 | O=C(NC1CCN(C(=O)N2CC3CC(C2)[C@H]2CCCC(=O)N2C3)CC1)c1cnccn1 (stereo partly drawn) | inconclusive: 5.62 µM [inhibitor, single point]
36 | COC[C@@H]1CN(c2cnccn2)C[C@H]1C(=O)NCc1ccccc1OC | inactive
37 | O=C(NC1CCN(c2ccnc3ccnn23)CC1)c1ccc(C(F)(F)F)cc1 | inactive
38 | Nc1nccc(-c2ccc3noc(-c4ccc(Cl)cc4)c3c2)n1 | inconclusive: 24.1 µM [inhibitor, partial curve]
39 | Cc1ccc(Nc2ncnc3c2nc2n3CCCC2)c(Br)c1 | inconclusive: 11.2 µM [inhibitor, single point]
40 | Cn1cc(C(=O)NCCc2ccc(Cl)cc2)c(=O)c2cc(S(=O)(=O)N3CCCCC3)ccc21 | inconclusive: 0.178 µM [inhibitor, full curve, poor fit]
41 | COCCN1C(=O)C(CC(=O)NC2CCS(=O)(=O)C2)=C2CCCCC21 (stereo not drawn) | inconclusive: 15.8 µM [inhibitor, partial curve]
42 | O=C(c1ccc2c(c1)N(Cc1ccccc1)C(=O)c1ccccc1S2=O)N1CCC(Cc2ccccc2)CC1 (stereo not drawn) | inconclusive: 31.6 µM [inhibitor, partial curve, poor fit]
43 | CC1CCN(C(=O)CN2C(=O)NC3(CCC(C(C)(C)C)CC3)C2=O)CC1 (stereo not drawn) | inconclusive: 3.16 µM [inhibitor, full curve]
